Further values from the same series stand in other lists.
Assay: xn = mol fraction of the nth substance listed

CO + O
Conditions | viscosity [mPa·s]
313.21 K, 101.33 kPa, x1 = 0.5663 | 0.893
313.21 K, 101.33 kPa, x1 = 0.6913 | 0.7637
313.21 K, 101.33 kPa, x1 = 0.8341 | 0.6146
318.15 K, 100 kPa, x1 = 0.047 | 0.708
318.15 K, 100 kPa, x1 = 0.159 | 0.902
318.15 K, 100 kPa, x1 = 0.306 | 1.026
318.15 K, 101 kPa, x1 = 0.0597 | 0.7095
318.15 K, 101 kPa, x1 = 0.128 | 0.8543
318.15 K, 101 kPa, x1 = 0.2086 | 0.9406
318.15 K, 101 kPa, x1 = 0.3041 | 0.9562
318.15 K, 101 kPa, x1 = 0.4203 | 0.8652
318.15 K, 101 kPa, x1 = 0.5657 | 0.8037
318.15 K, 101 kPa, x1 = 0.7522 | 0.6437
322.9 K, 101 kPa, x1 = 0.024 | 0.5963
322.9 K, 101 kPa, x1 = 0.0927 | 0.7026
322.9 K, 101 kPa, x1 = 0.1662 | 0.7891
322.9 K, 101 kPa, x1 = 0.1986 | 0.8121
322.9 K, 101 kPa, x1 = 0.2491 | 0.8349
322.9 K, 101 kPa, x1 = 0.2841 | 0.8383
322.9 K, 101 kPa, x1 = 0.3084 | 0.8384
322.9 K, 101 kPa, x1 = 0.4752 | 0.7745
322.9 K, 101 kPa, x1 = 0.5235 | 0.7463
322.9 K, 101 kPa, x1 = 0.6735 | 0.6347
322.9 K, 101 kPa, x1 = 0.8172 | 0.5267
322.9 K, 101 kPa, x1 = 0.92 | 0.4535
323.05 K, 101.33 kPa, x1 = 0.0583 | 0.6624
323.05 K, 101.33 kPa, x1 = 0.1229 | 0.763
323.05 K, 101.33 kPa, x1 = 0.2719 | 0.8647
323.05 K, 101.33 kPa, x1 = 0.3592 | 0.8553
323.05 K, 101.33 kPa, x1 = 0.5663 | 0.737
323.05 K, 101.33 kPa, x1 = 0.6913 | 0.6387
323.05 K, 101.33 kPa, x1 = 0.8341 | 0.527
323.1 K, 101.33 kPa, x1 = 0.4571 | 0.8034
323.15 K, 100 kPa, x1 = 0.15 | 0.7811
323.15 K, 100 kPa, x1 = 0.25 | 0.8375
323.15 K, 100 kPa, x1 = 0.3 | 0.8423
323.15 K, 100 kPa, x1 = 0.35 | 0.8335
323.15 K, 100 kPa, x1 = 0.5 | 0.7551
323.15 K, 100 kPa, x1 = 0.75 | 0.576
323.15 K, 101 kPa, x1 = 0.0597 | 0.6414
323.15 K, 101 kPa, x1 = 0.128 | 0.7673
323.15 K, 101 kPa, x1 = 0.2086 | 0.8412
323.15 K, 101 kPa, x1 = 0.3041 | 0.8546
323.15 K, 101 kPa, x1 = 0.4203 | 0.7757
323.15 K, 101 kPa, x1 = 0.5657 | 0.7305
323.15 K, 101 kPa, x1 = 0.7522 | 0.5916
323.15 K, 101.3 kPa, x1 = 0.0588 | 0.656
323.15 K, 101.3 kPa, x1 = 0.1233 | 0.759
323.15 K, 101.3 kPa, x1 = 0.1943 | 0.823
323.15 K, 101.3 kPa, x1 = 0.2727 | 0.854
323.15 K, 101.3 kPa, x1 = 0.3599 | 0.841
323.15 K, 101.3 kPa, x1 = 0.4576 | 0.795
323.15 K, 101.3 kPa, x1 = 0.5675 | 0.722
323.15 K, 101.3 kPa, x1 = 0.6922 | 0.63
323.15 K, 101.3 kPa, x1 = 0.835 | 0.522
323.15 K, 101.33 kPa, x1 = 0.0588 | 0.688
323.15 K, 101.33 kPa, x1 = 0.1119 | 0.744
323.15 K, 101.33 kPa, x1 = 0.123 | 0.788
323.15 K, 101.33 kPa, x1 = 0.194 | 0.867
323.15 K, 101.33 kPa, x1 = 0.273 | 0.884
323.15 K, 101.33 kPa, x1 = 0.2752 | 0.788
323.15 K, 101.33 kPa, x1 = 0.36 | 0.875
323.15 K, 101.33 kPa, x1 = 0.458 | 0.817
323.15 K, 101.33 kPa, x1 = 0.4607 | 0.77
323.15 K, 101.33 kPa, x1 = 0.692 | 0.65
323.15 K, 101.33 kPa, x1 = 0.6981 | 0.627
323.15 K, 101.33 kPa, x1 = 0.8322 | 0.539

Reference: the CheMixHub viscosity set
